Test results from paper PMC4336329 (PLoS ONE, 2015).
Out of some 310,000 compounds screened, about 2,200 (0.71%) showed an effect of 50% or more. Effects have a minus sign here. Some of the results follow. Where a SMILES comes first, the peptide text is derived from it. [ ]: non-standard residue; d: D form. The star is where a group is joined. ξ: configuration not given here. ξF = NC(Cc1ccccc1)C(=O)O; Cbz = O=C(OCc1ccccc1)*

The compounds below were run against human ether-à-go-go-related gene (hERG) potassium channel (human, UniProt Q12809) (assay: primary screen, population patch clamp on CHO cells stably expressing hERG).
human ether-à-go-go-related gene (hERG) potassium channel, sequence (Q12809 whole entry, looked up): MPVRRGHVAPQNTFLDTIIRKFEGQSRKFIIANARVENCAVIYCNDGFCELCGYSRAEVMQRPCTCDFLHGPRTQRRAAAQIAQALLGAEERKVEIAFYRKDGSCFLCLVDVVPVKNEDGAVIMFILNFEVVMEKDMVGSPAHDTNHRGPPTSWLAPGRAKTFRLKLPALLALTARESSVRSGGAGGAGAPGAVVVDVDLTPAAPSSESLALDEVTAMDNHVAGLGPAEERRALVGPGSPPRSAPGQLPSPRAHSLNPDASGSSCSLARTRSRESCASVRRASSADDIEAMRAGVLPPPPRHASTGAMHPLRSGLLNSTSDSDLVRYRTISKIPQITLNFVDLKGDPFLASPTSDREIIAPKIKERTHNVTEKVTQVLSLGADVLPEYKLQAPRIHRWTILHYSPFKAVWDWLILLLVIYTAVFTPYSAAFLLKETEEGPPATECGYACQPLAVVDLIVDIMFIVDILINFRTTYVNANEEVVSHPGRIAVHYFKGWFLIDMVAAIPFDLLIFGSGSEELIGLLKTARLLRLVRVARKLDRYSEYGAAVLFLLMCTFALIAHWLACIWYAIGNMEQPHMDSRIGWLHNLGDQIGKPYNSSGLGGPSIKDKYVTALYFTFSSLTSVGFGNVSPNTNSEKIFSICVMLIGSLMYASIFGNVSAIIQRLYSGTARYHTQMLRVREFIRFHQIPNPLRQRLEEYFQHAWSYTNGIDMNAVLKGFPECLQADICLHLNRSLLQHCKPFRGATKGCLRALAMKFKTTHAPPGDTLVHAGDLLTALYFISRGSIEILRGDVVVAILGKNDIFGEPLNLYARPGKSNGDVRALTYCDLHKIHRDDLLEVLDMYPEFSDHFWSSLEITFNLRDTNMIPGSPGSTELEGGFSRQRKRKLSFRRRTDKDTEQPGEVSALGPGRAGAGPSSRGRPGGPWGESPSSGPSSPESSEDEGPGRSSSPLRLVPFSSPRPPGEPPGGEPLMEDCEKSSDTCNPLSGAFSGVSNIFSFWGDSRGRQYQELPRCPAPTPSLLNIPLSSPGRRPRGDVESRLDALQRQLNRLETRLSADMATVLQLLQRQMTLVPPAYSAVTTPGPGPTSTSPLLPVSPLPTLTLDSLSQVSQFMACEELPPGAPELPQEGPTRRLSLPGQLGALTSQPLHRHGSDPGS

Row | Compound | hERG current change (%, negative = inhibition) at 1uM
1 | CC1=C(C(=O)OCC2CCCCC2)C(c2ccc(F)cc2)NC(=O)N1 (stereo not shown) | 15.6%
2 | COc1ccc(C2=[N+](C)CCn3cccc32)c(OC)c1.[I-] | 8.78%
3 | CCOc1ccc2c(c1)C(N(CCN1CCOCC1)C(=O)Nc1ccccc1)CC(C)(C)O2 (stereo not shown) | 7.9%
4 | Cc1ccc(-c2nnn(CC(=O)NC3CC4CCC3C4)n2)cc1 (stereo not shown) | 4.49%
5 | CC(C)(C)c1ccc(OCC(=O)NCc2ccco2)c(Br)c1 | 2.18%
6 | CCN1CCCc2cc(CN(CCN3CCOCC3)C(=S)Nc3ccc(OC)c(OC)c3)ccc21 | 8.39%
7 | Cc1cccc(NNC(=O)c2c(F)cccc2Cl)c1 | 9.88%
8 | O=C1N(Nc2ccccc2)C(c2ccc(Br)cc2)C12CCCCC2 (stereo not shown) | 15.7%
9 | COCCN(C(=O)CSc1nc(-c2ccccc2)cn1N)c1c(N)n(Cc2ccccc2)c(=O)[nH]c1=O | 3.04%
10 | Cc1cc(Nc2ccc(N3CCOCC3)cc2)c2cccc(C)c2n1.Cl | -17.8%
11 | COc1ccc(Cl)cc1NC(=O)CS(=O)(=O)c1cccc2nsnc12 | -0.237%
12 | COc1ccc(OC(=O)Cc2cccc3ccccc23)cc1 | 13.2%
13 | COc1cccc(OC)c1NC(=O)C1CCCN1C(=O)NCc1ccccc1 (stereo not shown) | 3.69%
14 | Cc1cc(C(=O)N/N=C/c2cccn2C)n[nH]1 | -1.85%
15 | CC(C)OC(=O)c1nnc(Cc2ccc(F)cc2)o1 | 5.64%
16 | CCOc1ccc(C(=O)COC(=O)c2nn(CC)c(=O)c3ccccc23)cc1 | -5.23%
17 | CCCCCCCC(=O)NC1=NC(=O)C(C)(C)S1 | 13.4%
18 | O=C(NCc1ccccc1)Nc1cccn(Cc2cccc(F)c2)c1=O | 11.8%
19 | O=C(O)c1ccccc1-c1nc2ccccc2[nH]1 | 15.2%
20 | Cc1ccnc(NC(=O)CCC(=O)N(CC(=O)NCc2ccccc2)Cc2ccc(F)cc2)c1 | -4.64%
21 | COc1ccc(CCNC(=O)COC(=O)COc2ccc(Cl)cc2)cc1OC | 12.8%
22 | CCOc1ccc(C(=O)OC(C)CN2CCN(C)CC2)cc1.Cl (stereo not shown) | 1.94%

Row | Compound | hERG current change (%, negative = inhibition) at 1uM
23 | CC(=O)Nc1ccc(C)c([N+](=O)[O-])c1 | 13.3%
24 | Cc1nnc(SCC(=O)Nc2cccnc2Cl)s1 | -1.11%
25 | CCCc1nn(C)c2c(=O)[nH]c(-c3ccccc3OCC)nc12 | 14.3%
26 | CC(=O)Nc1ccc(NC(=O)CSc2nnc(C3CC3)n2-c2ccccc2)cc1 | 2.39%
27 | COc1ccc(CN(C)C(=O)c2cccc(S(=O)(=O)N3CCN(c4ccccc4)CC3)c2)c(OC)c1OC | 10.8%
28 | CC(C)(C)c1ccc(OC(=O)Nc2ccc(O)c(C(=O)O)c2)cc1 | 10.1%
29 | Cc1ccc2nc(NC(=O)c3ccccc3F)sc2c1 | 17%
30 | NC(=O)COC(=O)c1ccc(S(=O)(=O)N2CCCCCC2)cc1 | 11.1%
31 | C[C@]12CCC(OC(=O)CCC(=O)O)CC1=CCC1C2CC[C@]2(C)C(=O)CCC12 (stereo partly shown) | 13.6%
32 | Cn1c(CNC(=O)C(Cc2ccccc2)NC(=O)c2ccccc2)cc(=O)n(C)c1=O (stereo not shown) | 3.09%
33 | COC(=O)c1cc(S(=O)(=O)N2CCN(c3cccc(C)c3C)CC2)c[nH]1 | 12.2%
34 | CC(=O)Nc1ccc(C(=O)NCC2(N3CCCCC3)CCCCC2)cc1 | -14.7%
35 | Cc1ccc(NC(=O)c2nc[nH]c2C(=O)NCCCCCNC(=O)OC(C)(C)C)cc1 | 10.7%
36 | CCCCCCc1c(C)[nH]c2nc3ccccc3n2c1=O | 11.6%
37 | CCc1ccc(Nc2nnc(SCC(=O)Nc3cccnc3Cl)s2)cc1 | 3.22%
38 | CCOC(=O)c1c(CSc2ccccc2)n(C)c2cc(Br)c(O)c(CN(C)C)c12 | -3.17%
39 | Cn1c(=O)c2c(ncn2CC(=O)N/N=C/c2c[nH]c3ccccc23)n(C)c1=O | 10.2%
40 | Nc1c(C(=O)Nc2ccccc2Cl)nnn1-c1ccc2c(c1)OCCO2 | 16.1%
41 | CC(C)(C)OC(=O)N[C@@H](Cc1ccccc1)c1nnc(S(=O)(=O)Cc2cccc(F)c2)o1 | 12.4%
42 | O=C1NC(=O)N(Cc2ccco2)C(=O)/C1=C/c1cccn1CCOc1ccccc1Cl | 5.64%
43 | Cc1cc(=O)[nH]c(SC/C=C/c2ccccc2)n1 | 10.4%
44 | Br.CN=c1sc(C(=O)Nc2cccc(Cl)c2)cc(=O)n1C | 2.47%

Row | Compound | hERG current change (%, negative = inhibition) at 1uM
45 | CCOc1cc(N2CCOCC2)c(OCC)cc1NS(=O)(=O)c1cc(NC(C)=O)ccc1OC | 11.6%
46 | CC(C)N(C(=O)Cn1cnc2cc([N+](=O)[O-])ccc2c1=O)C(C)C | 5.54%
47 | O=C(O)CNC(=O)C(Cc1ccccc1)NC(=O)OCc1ccccc1 (stereo not shown) (Cbz-[ξF]-Gly-OH) | 14.4%
48 | O=Cc1c(NCc2ccccc2)c2ccccc2[nH]c1=O | 12.6%
49 | CCC(C(=O)NC1CCCCC1)n1c2ccccc2c2nc(=O)cc(C)n21 (stereo not shown) | 10.5%
50 | O=C(Nc1ccccc1-c1nc2ccccc2s1)C1=COCCO1 | 7.31%
51 | CCc1cc(=O)oc2cc(C)cc(OCC(=O)NCC(O)c3ccccc3)c12 (stereo not shown) | 6.19%
52 | COc1ccc(CNC(=O)CSc2nc3cccnc3s2)cc1 | 7.12%
53 | CCN(CC)CCNC(=O)C1c2ccccc2C(=O)N(CCOC)C1c1ccc(F)cc1 (stereo not shown) | 15.4%
54 | COC(=O)CCC(=O)Oc1ccc(OC(=O)CCC(=O)OC)cc1 | 10.6%
55 | COc1ccc(OC(=O)c2cnn(-c3ccccc3)c2C)cc1 | 15.6%
56 | O=C(CCSc1ccccc1)N1CCN(C(=O)c2ccco2)CC1 | 1.52%
57 | O=C(c1n[nH]c(=O)c2ccccc12)N1CCN(S(=O)(=O)c2ccccc2Cl)CC1 | -5.55%
58 | COc1ccc(CCC(=O)N/N=C(\C)c2ccc3c(c2)OCO3)cc1 | 9.29%
59 | N#Cc1ccc(NCC(=O)N2CCN(S(=O)(=O)c3ccccc3)CC2)cc1 | -32.3%
60 | O=C(C=C1CCN(c2ncc(C(F)(F)F)cc2Cl)CC1)NNC(=O)Nc1ccccc1 | 2.66%
61 | C=C(C)CSCc1nc2ccccc2[nH]1 | 18.6%
62 | Cn1cccc1C(=O)NC(=O)COC(=O)CNS(=O)(=O)c1ccc(Br)cc1 | 5.34%
63 | CN(Cc1nccn1C)C(=O)CC1C(=O)NCCN1Cc1ccc(F)cc1Cl (stereo not shown) | -2.2%
64 | COC(=O)c1cc(Cl)c(N)cc1OC | -7.25%
65 | Cn1cc(CN2CCN(Cc3ccc4c(c3)OCO4)CC2)c(-c2ccccc2F)n1 | 1.05%
66 | CCCCn1c(Nc2ccccc2)nc2ccccc21 | 17.1%

Row | Compound | hERG current change (%, negative = inhibition) at 1uM
67 | CCOc1ccccc1NC(=O)c1cc(=O)c2ccccc2o1 | 11.9%
68 | COc1ccc(CCNC(=O)CSc2nnnn2-c2ccccc2OC)cc1OC | 7.6%
69 | O=C(Nc1ccc(F)cc1)Nc1ccc([N+](=O)[O-])cn1 | 14.9%
70 | CC(C)n1nccc1NC(=O)Nc1ccccc1 | 17.6%
71 | CC1(C)CCC(=O)N2CC[C@H]3C[C@H](OC(=O)Nc4ccccc4)C[C@@H]1[C@H]32 | -2.07%
72 | COc1ccc(CNC(=O)COC(=O)CCc2nc3ccccc3c(=O)[nH]2)cc1 | 0.808%
73 | CCc1noc(C)c1C(=O)N1CCCSC1=Nc1ccccc1C(C)C | 5.73%
74 | Cc1cccc(CS(=O)(=O)Cc2ccc(C(=O)NCc3cccnc3)o2)c1 | 12.6%
75 | CC1(C)CC(=O)C2=C(C1)Oc1nc3ccccc3cc1C2C(C#N)C#N (stereo not shown) | 13.4%
76 | CCOC(=O)C1CCCN(S(=O)(=O)c2ccc(S(=O)(=O)N(CC)CC)cc2)C1 (stereo not shown) | 4.27%
77 | C=C1CSc2nc(=O)c3c4c(sc3n21)CCCC4 | -8.42%
78 | O=C(C1CCCN(Cc2ccccc2F)C1)N1CCCCC1.O=C(O)C(=O)O (stereo not shown) | 10.1%
79 | CCc1nc(SCC(=O)c2cccs2)c2oc3ccccc3c2n1 | 12.7%
80 | CCn1c(O)c(N=Nc2ccc(S(=O)(=O)N3CCOCC3)cc2)c(=O)n(CC)c1=S | -1.96%
81 | Cn1cccc1/C=N/n1c(-c2ccc(Cl)cc2Cl)n[nH]c1=S | -14.9%
82 | Cc1onc(-c2c(Cl)cccc2Cl)c1C(=O)N1CCN(c2ncccn2)CC1 | 9.25%
83 | Cc1cc(C(=O)CSc2nnc(C3COc4ccccc4O3)n2C)c(C)n1-c1ccc(F)cc1 (stereo not shown) | 4.24%
84 | O=C(Cc1ccccc1F)Nc1cccc2cccnc12 | 0.881%
85 | Cc1ccc(NC(=O)C2CCCN2C(=O)NC2CCCCC2)cc1F (stereo not shown) | 9.45%
86 | Cc1ccc2nc(CSc3nnc(Nc4ccccc4F)s3)cc(=O)n2c1 | -7.74%
87 | NC(=O)C1(N2CCCCC2)CCN(S(=O)(=O)c2ccc(Cl)s2)CC1 | 5.38%
88 | COc1cccc(C(C2=C(O)CC(C)(C)CC2=O)C2C(=O)CC(C)(C)CC2=O)c1 (stereo not shown) | 22.1%
